Measurements from the supplement of paper PMC4466236.
Whole data set: some 33,000 sequences, median “E-score (dimensionless, -0.5 to 0.5)” near -0.058, cut for the highest 2% near 0.35. The list shows a part of the results.

tested on: MvaT; experiment: PBM 8-mer E-score (mean of HK and ME arrays) (E-score (dimensionless, -0.5 to 0.5)); higher = stronger relative binding preference; most listed sequences are background and not binding sites
Summary of the method: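 Reported values are rank-based E-scores, taken as the mean of two universal arrays and parsed with a custom script. Each 8-mer score falls between -0.5 and 0.5. The arrays, ME and HK, were double-stranded 60-mers with a constant 25-mer primer region and a variable 35-mer region covering all 8-mers. They were probed, by an earlier protocol, with full-length P. aeruginosa MvaT carrying an N-terminal glutathione S-transferase fusion.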

Sequence	PBM 8-mer E-score
AGGTGCCG	-0.21
AATTTTAT	0.324
CACCATTC	-0.0583
ACCAATGA	-0.075
AGGAGTAC	-0.123
CCCAAGGG	-0.407
GTGACGAA	-0.12
ACCGGGAC	-0.226
AATAAGAG	0.222
AGTCCGAA	-0.135
ATAGTTGG	0.124
CCTTGCAA	-0.00659
GCTGTGAA	0.176
TGCGTAAA	0.128
TATGCTCA	-0.0354
ATGTCCAA	-0.029
AGTAGTCG	0.0506
ATTCAAAC	0.174
ACGGGAGA	-0.23
ACAGGTTA	0.00674
CCCAACCA	-0.247
GACTGACC	-0.197
ACCCACAA	0.0435
TCCATTCA	-0.0922

Sequence	PBM 8-mer E-score
CAACTCGG	-0.0192
AGAGCAGC	-0.263
CCGTCGGA	-0.171
GACCAATA	0.115
AGTGCCAT	-0.126
GCACTAGC	-0.15
CCGCCCTC	-0.198
GGCTGCTA	-0.186
CTAGCTGC	-0.273
CAAGTTTC	0.159
ACCATGCT	-0.0594
AAAGGTGT	0.065
CAGGACTC	-0.228
CCCCAGAG	-0.159
ACCCACTC	-0.000253
AATTGACT	0.0728
CCTTATTA	0.292
AAGGCATT	-0.0145
GACGACGC	-0.249
CGTGTCAC	-0.138
ATCGGCCA	-0.173
ACCAGCCA	-0.103
CACGTACC	-0.255
ATACGTCA	0.0584

Sequence	PBM 8-mer E-score
ATGTTCTA	0.0957
AAACTTGC	0.232
ACCTCCCA	-0.226
AGCGGTCG	-0.314
CCCTAGCC	-0.272
CTTTAGGC	-0.0888
ACGTACAA	0.158
CGTGGCAC	-0.252
CAGAGTCC	-0.202
CCCAGCTC	-0.188
GAATCCTC	-0.262
ATGACGCA	-0.0923
CTCAACGA	-0.126
ATGGGAGG	-0.307
GCCCGGCA	-0.203
AAATGGCT	-0.139
ATTCAATG	0.0138
AAGGTTAC	-0.0966
GCTTTCCC	-0.305
CTTGTACC	-0.189
CGGGTGTA	-0.173
TACAGCGA	0.0102
TGCATGCA	0.00935
AGCTCGTA	-0.104

Sequence	PBM 8-mer E-score
ATCGTCTC	0.0114
ACTACTAC	0.138
ATGACCCC	-0.19
AGAAATGA	0.0234
TACCAGAA	0.096
CGTTCGAC	-0.16
ACCGACTC	-0.12
TAAAATGA	0.263
CCAGTGGC	-0.339
CTATTACC	0.165
ACGGGTAC	-0.0995
GGGCTGAC	-0.203
AAGTAGAG	0.0241
AGCTTCTA	-0.0129
AATAAGTG	0.254
ACACATCT	0.0482
CCCACTAA	0.0832
AAGGTCGG	-0.224
AAAAAATC	-0.0155
CAGTGATG	0.0336
ACCTTCTC	-0.216
ACCTGCCG	-0.216
